# Test results: the supplement of paper PMC8728848
# This is one part of the list.
# B1: TIM1 (protein)
# chain: ADGIQSVKVGGEAGPSVTLPCHYSGAVTSMCWNRGSCSLFTCQNGIVWTNGTHVTYRKDTRYKLLGDLSRRDVSLTIENTAVSDSGVYCCRVEHRGWFNDMKITVSLEIVPPHHHHHH
# Experiments:
# Test in all cases: glycan array binding signal (z-score within array); higher = stronger binding
# Conditions in all cases: glycan notation: IUPAC condensed, linker removed
# [1] = target: Fuc(a1-2)[Gal(a1-3)]Gal(b1-4)GlcNAc(b1-2)Man(a1-3)[Fuc(a1-2)[Gal(a1-3)]Gal(b1-4)GlcNAc(b1-2)Man(a1-6)]Man(b1-4)GlcNAc(b1-4)[Fuc(a1-6)]GlcNAc
# Method in brief: (§1)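 The binding signal is a Z-score computed within each array and averaged over linkers. Arrays of the same protein sequence at different concentrations or buffers were also averaged together. Data originate from 3228 arrays in the Consortium for Functional Glycomics database, kept only where the protein sequence was available.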
# [2] = target: Fuc(a1-2)[Gal(a1-3)]Gal(b1-4)GlcNAc(b1-3)GalNAc
# Method in brief: as §1
# [3] = target: Fuc(a1-2)[Gal(a1-3)]Gal(b1-4)GlcNAc(b1-3)[Fuc(a1-2)[Gal(a1-3)]Gal(b1-4)GlcNAc(b1-6)]GalNAc
# Method in brief: as §1
# [4] = target: Fuc(a1-2)[Gal(a1-3)]Gal(b1-4)GlcNAc(b1-6)GalNAc
# Method in brief: as §1
# [5] = target: Fuc(a1-2)[Gal(a1-3)]Gal(b1-4)[Fuc(a1-3)]Glc
# Method in brief: as §1
# [6] = target: Fuc(a1-2)[Gal(a1-3)]Gal(b1-4)[Fuc(a1-3)]GlcNAc
# Method in brief: as §1
# [7] = target: Fuc(a1-2)[Gal(a1-3)]Gal(b1-4)[Fuc(a1-3)]GlcNAc(b1-3)GalNAc
# Method in brief: as §1
# [8] = target: Fuc(a1-2)[Gal(a1-4)]Gal(b1-4)GlcNAc
# Method in brief: as §1
# [9] = target: Fuc(a1-2)[GalNAc(a1-3)]Gal
# Method in brief: as §1
# [10] = target: Fuc(a1-2)[GalNAc(a1-3)]Gal(b1-3)GalNAc(a1-3)[Fuc(a1-2)]Gal(b1-4)GlcNAc
# Method in brief: as §1
# [11] = target: Fuc(a1-2)[GalNAc(a1-3)]Gal(b1-3)GalNAc(b1-3)Gal(a1-4)Gal(b1-4)Glc
# Method in brief: as §1
# [12] = target: Fuc(a1-2)[GalNAc(a1-3)]Gal(b1-3)GlcNAc
# Method in brief: as §1
# [13] = target: Fuc(a1-2)[GalNAc(a1-3)]Gal(b1-3)GlcNAc(b1-2)Man(a1-3)[Fuc(a1-2)[GalNAc(a1-3)]Gal(b1-3)GlcNAc(b1-2)Man(a1-6)]Man(b1-4)GlcNAc(b1-4)GlcNAc
# Method in brief: as §1
# [14] = target: Fuc(a1-2)[GalNAc(a1-3)]Gal(b1-3)GlcNAc(b1-2)Man(a1-3)[Fuc(a1-2)[GalNAc(a1-3)]Gal(b1-3)GlcNAc(b1-2)Man(a1-6)]Man(b1-4)GlcNAc(b1-4)[Fuc(a1-6)]GlcNAc
# Method in brief: as §1
# [15] = target: Fuc(a1-2)[GalNAc(a1-3)]Gal(b1-3)GlcNAc(b1-3)GalNAc
# Method in brief: as §1
# [16] = target: Fuc(a1-2)[GalNAc(a1-3)]Gal(b1-3)GlcNAc(b1-6)GalNAc
# Method in brief: as §1
# [17] = target: Fuc(a1-2)[GalNAc(a1-3)]Gal(b1-4)Glc
# Method in brief: as §1
# [18] = target: Fuc(a1-2)[GalNAc(a1-3)]Gal(b1-4)GlcNAc
# Method in brief: as §1
# [19] = target: Fuc(a1-2)[GalNAc(a1-3)]Gal(b1-4)GlcNAc(b1-2)Man
# Method in brief: as §1
# [20] = target: Fuc(a1-2)[GalNAc(a1-3)]Gal(b1-4)GlcNAc(b1-2)Man(a1-3)[Fuc(a1-2)[GalNAc(a1-3)]Gal(b1-4)GlcNAc(b1-2)Man(a1-6)]Man(b1-4)GlcNAc(b1-4)GlcNAc
# Method in brief: as §1
# [21] = target: Fuc(a1-2)[GalNAc(a1-3)]Gal(b1-4)GlcNAc(b1-2)Man(a1-3)[Fuc(a1-2)[GalNAc(a1-3)]Gal(b1-4)GlcNAc(b1-2)Man(a1-6)]Man(b1-4)GlcNAc(b1-4)[Fuc(a1-6)]GlcNAc
# Method in brief: as §1
# [22] = target: Fuc(a1-2)[GalNAc(a1-3)]Gal(b1-4)GlcNAc(b1-3)Gal(b1-4)GlcNAc
# Method in brief: as §1
# [23] = target: Fuc(a1-2)[GalNAc(a1-3)]Gal(b1-4)GlcNAc(b1-3)Gal(b1-4)GlcNAc(b1-3)Gal(b1-4)GlcNAc
# Method in brief: as §1
# [24] = target: Fuc(a1-2)[GalNAc(a1-3)]Gal(b1-4)GlcNAc(b1-3)GalNAc
# Method in brief: as §1
# [25] = target: Fuc(a1-2)[GalNAc(a1-3)]Gal(b1-4)GlcNAc(b1-3)[Fuc(a1-2)[GalNAc(a1-3)]Gal(b1-4)GlcNAc(b1-6)]GalNAc
# Method in brief: as §1
# [26] = target: Fuc(a1-2)[GalNAc(a1-3)]Gal(b1-4)GlcNAc(b1-6)GalNAc
# Method in brief: as §1
# [27] = target: Fuc(a1-2)[GalNAc(a1-3)]Gal(b1-4)[Fuc(a1-3)]GlcNAc
# Method in brief: as §1
# [28] = target: Fuc(a1-2)[GalNAc(a1-3)]Gal(b1-4)[Fuc(a1-3)]GlcNAc(b1-3)GalNAc
# Method in brief: as §1
# [29] = target: Fuc(a1-2)[GalNAc(a1-4)]Gal(b1-4)GlcNAc
# Method in brief: as §1
# [30] = target: Fuc(a1-2)[GalNAc(b1-3)]Gal
# Method in brief: as §1
# Fuc(a1-3)GlcNAc = target: Fuc(a1-3)GlcNAc
# Method in brief: as §1
# [31] = target: Fuc(a1-3)[Gal(b1-4)]Glc6S
# Method in brief: as §1
# [32] = target: Fuc(a1-3)[Gal(b1-4)]GlcNAc
# Method in brief: as §1
# [33] = target: Fuc(a1-3)[Gal(b1-4)]GlcNAc(b1-2)Man
# Method in brief: as §1
# [34] = target: Fuc(a1-3)[Gal(b1-4)]GlcNAc(b1-2)Man(a1-3)[Fuc(a1-3)[Gal(b1-4)]GlcNAc(b1-2)Man(a1-6)]Man(b1-4)GlcNAc(b1-4)GlcNAc
# Method in brief: as §1
# [35] = target: Fuc(a1-3)[Gal(b1-4)]GlcNAc(b1-2)Man(a1-3)[Fuc(a1-3)[Gal(b1-4)]GlcNAc(b1-2)Man(a1-6)]Man(b1-4)GlcNAc(b1-4)[Fuc(a1-6)]GlcNAc
# Method in brief: as §1
# [36] = target: Fuc(a1-3)[Gal(b1-4)]GlcNAc(b1-3)Gal(b1-3)[Fuc(a1-4)]GlcNAc
# Method in brief: as §1
# [37] = target: Fuc(a1-3)[Gal(b1-4)]GlcNAc(b1-3)Gal(b1-4)[Fuc(a1-3)]GlcNAc
# Method in brief: as §1
# [38] = target: Fuc(a1-3)[Gal(b1-4)]GlcNAc(b1-3)Gal(b1-4)[Fuc(a1-3)]GlcNAc(b1-3)Gal(b1-4)[Fuc(a1-3)]GlcNAc
# Method in brief: as §1
# [39] = target: Fuc(a1-3)[Gal(b1-4)]GlcNAc(b1-3)GalNAc
# Method in brief: as §1
# [40] = target: Fuc(a1-3)[Gal(b1-4)]GlcNAc(b1-6)GalNAc
# Method in brief: as §1
# [41] = target: Fuc(a1-3)[Gal(b1-4)]GlcNAc(b1-6)[Gal(b1-3)GlcNAc(b1-3)]Gal(b1-4)Glc
# Method in brief: as §1
# [42] = target: Fuc(a1-3)[Gal(b1-4)]GlcNAc6S
# Method in brief: as §1
# [43] = target: Fuc(a1-3)[Gal3S(b1-4)]Glc
# Method in brief: as §1
# [44] = target: Fuc(a1-3)[Gal3S(b1-4)]GlcNAc
# Method in brief: as §1
# [45] = target: Fuc(a1-3)[Gal3S(b1-4)]GlcNAc6S
# Method in brief: as §1
# [46] = target: Fuc(a1-3)[GalNAc(b1-4)]GlcNAc
# Method in brief: as §1
# [47] = target: Fuc(a1-3)[GalNAc(b1-4)]GlcNAc6S
# Method in brief: as §1
# Fuc(a1-4)GlcNAc = target: Fuc(a1-4)GlcNAc
# Method in brief: as §1
# Fuc(b1-3)GlcNAc = target: Fuc(b1-3)GlcNAc
# Method in brief: as §1
# Gal(a1-2)Gal = target: Gal(a1-2)Gal
# Method in brief: as §1
# Gal(a1-3)Gal = target: Gal(a1-3)Gal
# Method in brief: as §1
# Gal(a1-3)Gal(b1-3)GlcNAc = target: Gal(a1-3)Gal(b1-3)GlcNAc
# Method in brief: as §1
# [48] = target: Gal(a1-3)Gal(b1-3)GlcNAc(b1-2)Man
# Method in brief: as §1
# [49] = target: Gal(a1-3)Gal(b1-3)GlcNAc(b1-2)Man(a1-3)[Gal(a1-3)Gal(b1-3)GlcNAc(b1-2)Man(a1-6)]Man(b1-4)GlcNAc(b1-4)GlcNAc
# Method in brief: as §1
# [50] = target: Gal(a1-3)Gal(b1-3)GlcNAc(b1-3)GalNAc
# Method in brief: as §1
# [51] = target: Gal(a1-3)Gal(b1-3)GlcNAc(b1-6)GalNAc
# Method in brief: as §1
# [52] = target: Gal(a1-3)Gal(b1-3)[Fuc(a1-4)]GlcNAc(b1-2)Man(a1-3)[Gal(a1-3)Gal(b1-3)[Fuc(a1-4)]GlcNAc(b1-2)Man(a1-6)]Man(b1-4)GlcNAc(b1-4)GlcNAc
# Method in brief: as §1
# Gal(a1-3)Gal(b1-4)Glc = target: Gal(a1-3)Gal(b1-4)Glc
# Method in brief: as §1
# Gal(a1-3)Gal(b1-4)GlcNAc = target: Gal(a1-3)Gal(b1-4)GlcNAc
# Method in brief: as §1
binder,measurement,setting,value
B1,glycan array binding signal (z-score),[1],-0.275
same,glycan array binding signal (z-score),[2],-0.209
same,glycan array binding signal (z-score),[3],1.94
same,glycan array binding signal (z-score),[4],-0.245
same,glycan array binding signal (z-score),[5],-0.253
same,glycan array binding signal (z-score),[6],-0.096
same,glycan array binding signal (z-score),[7],0.141
same,glycan array binding signal (z-score),[8],-0.246
same,glycan array binding signal (z-score),[9],-0.241
same,glycan array binding signal (z-score),[10],-0.252
same,glycan array binding signal (z-score),[11],-0.201
same,glycan array binding signal (z-score),[12],-0.189
same,glycan array binding signal (z-score),[13],-0.143
same,glycan array binding signal (z-score),[14],-0.208
same,glycan array binding signal (z-score),[15],0.033
same,glycan array binding signal (z-score),[16],-0.07
same,glycan array binding signal (z-score),[17],-0.199
same,glycan array binding signal (z-score),[18],-0.24
same,glycan array binding signal (z-score),[19],-0.204
same,glycan array binding signal (z-score),[20],-0.043
same,glycan array binding signal (z-score),[21],-0.187
same,glycan array binding signal (z-score),[22],-0.249
same,glycan array binding signal (z-score),[23],0.636
same,glycan array binding signal (z-score),[24],-0.24
same,glycan array binding signal (z-score),[25],-0.245
same,glycan array binding signal (z-score),[26],-0.149
same,glycan array binding signal (z-score),[27],-0.083
same,glycan array binding signal (z-score),[28],0.878
same,glycan array binding signal (z-score),[29],-0.198
same,glycan array binding signal (z-score),[30],0.039
same,glycan array binding signal (z-score),Fuc(a1-3)GlcNAc,-0.147
same,glycan array binding signal (z-score),[31],-0.039
same,glycan array binding signal (z-score),[32],-0.206
same,glycan array binding signal (z-score),[33],-0.048
same,glycan array binding signal (z-score),[34],-0.116
same,glycan array binding signal (z-score),[35],-0.042
same,glycan array binding signal (z-score),[36],-0.141
same,glycan array binding signal (z-score),[37],-0.175
same,glycan array binding signal (z-score),[38],-0.226
same,glycan array binding signal (z-score),[39],-0.044
same,glycan array binding signal (z-score),[40],0.298
same,glycan array binding signal (z-score),[41],-0.138
same,glycan array binding signal (z-score),[42],0.298
same,glycan array binding signal (z-score),[43],-0.1
same,glycan array binding signal (z-score),[44],-0.153
same,glycan array binding signal (z-score),[45],0.03
same,glycan array binding signal (z-score),[46],-0.093
same,glycan array binding signal (z-score),[47],-0.241
same,glycan array binding signal (z-score),Fuc(a1-4)GlcNAc,8.15
same,glycan array binding signal (z-score),Fuc(b1-3)GlcNAc,-0.034
same,glycan array binding signal (z-score),Gal(a1-2)Gal,-0.184
same,glycan array binding signal (z-score),Gal(a1-3)Gal,-0.098
same,glycan array binding signal (z-score),Gal(a1-3)Gal(b1-3)GlcNAc,0.353
same,glycan array binding signal (z-score),[48],-0.209
same,glycan array binding signal (z-score),[49],-0.009
same,glycan array binding signal (z-score),[50],-0.169
same,glycan array binding signal (z-score),[51],-0.251
same,glycan array binding signal (z-score),[52],0.01
same,glycan array binding signal (z-score),Gal(a1-3)Gal(b1-4)Glc,-0.237
same,glycan array binding signal (z-score),Gal(a1-3)Gal(b1-4)GlcNAc,-0.222
